This note sets out measurements from the supplement of paper PMC8728848.

Test in all cases: glycan array binding signal (z-score within array); higher = stronger binding
What all share (details): glycan notation: IUPAC condensed, linker removed

For assay [1], the target named is Gal(b1-4)GlcNAc(b1-3)Gal(b1-3)GlcNAc. The method in brief:
(§1)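 Negative Z-scores can be read as non-binding. The Z-score is calculated within each array and then averaged across arrays of one protein sequence at different concentrations or buffers and across linkers. Arrays, 3228 in all, were curated from the Consortium for Functional Glycomics database and kept only where the protein sequence was available.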

Assay [2] has as its target Gal(b1-4)GlcNAc(b1-3)Gal(b1-4)Glc. The method in brief:
as §1

The target in assay [3] is Gal(b1-4)GlcNAc(b1-3)Gal(b1-4)GlcNAc. In outline:
as §1

In assay [4] the target is Gal(b1-4)GlcNAc(b1-3)Gal(b1-4)GlcNAc(b1-2)Man(a1-3)[Gal(b1-4)GlcNAc(b1-3)Gal(b1-4)GlcNAc(b1-2)Man(a1-6)]Man(b1-4)GlcNAc(b1-4)GlcNAc. The method in brief:
as §1

For assay [5], the target named is Gal(b1-4)GlcNAc(b1-3)Gal(b1-4)GlcNAc(b1-2)Man(a1-3)[Gal(b1-4)GlcNAc(b1-3)Gal(b1-4)GlcNAc(b1-2)Man(a1-6)]Man(b1-4)GlcNAc(b1-4)[Fuc(a1-6)]GlcNAc. In outline: as §1
The target in assay [6] is Gal(b1-4)GlcNAc(b1-3)Gal(b1-4)GlcNAc(b1-2)[Gal(b1-4)GlcNAc(b1-3)Gal(b1-4)GlcNAc(b1-6)]Man(a1-6)[Gal(b1-4)GlcNAc(b1-3)Gal(b1-4)GlcNAc(b1-2)Man(a1-3)]Man(b1-4)GlcNAc(b1-4)GlcNAc. In outline: as §1
The target of assay [7] is Gal(b1-4)GlcNAc(b1-3)Gal(b1-4)GlcNAc(b1-2)[Gal(b1-4)GlcNAc(b1-3)Gal(b1-4)GlcNAc(b1-6)]Man(a1-6)[Gal(b1-4)GlcNAc(b1-3)Gal(b1-4)GlcNAc(b1-2)Man(a1-3)]Man(b1-4)GlcNAc(b1-4)[Fuc(a1-6)]GlcNAc. In outline:
as §1

In assay [8] the target is Gal(b1-4)GlcNAc(b1-3)Gal(b1-4)GlcNAc(b1-3)Gal(b1-4)GlcNAc. The method in brief: as §1
Assay [9] has as its target Gal(b1-4)GlcNAc(b1-3)Gal(b1-4)GlcNAc(b1-3)Gal(b1-4)GlcNAc(b1-2)Man(a1-3)[Gal(b1-4)GlcNAc(b1-3)Gal(b1-4)GlcNAc(b1-3)Gal(b1-4)GlcNAc(b1-2)Man(a1-6)]Man(b1-4)GlcNAc(b1-4)GlcNAc. In outline: as §1
Assay [10] concerns the target Gal(b1-4)GlcNAc(b1-3)Gal(b1-4)GlcNAc(b1-3)Gal(b1-4)GlcNAc(b1-2)Man(a1-3)[Gal(b1-4)GlcNAc(b1-3)Gal(b1-4)GlcNAc(b1-3)Gal(b1-4)GlcNAc(b1-2)Man(a1-6)]Man(b1-4)GlcNAc(b1-4)[Fuc(a1-6)]GlcNAc. The method in brief: as §1
The target of assay [11] is Gal(b1-4)GlcNAc(b1-3)Gal(b1-4)GlcNAc(b1-3)Gal(b1-4)GlcNAc(b1-2)[Gal(b1-4)GlcNAc(b1-3)Gal(b1-4)GlcNAc(b1-3)Gal(b1-4)GlcNAc(b1-6)]Man(a1-6)[Gal(b1-4)GlcNAc(b1-3)Gal(b1-4)GlcNAc(b1-3)Gal(b1-4)GlcNAc(b1-2)Man(a1-3)]Man(b1-4)GlcNAc(b1-4)[Fuc(a1-6)]GlcNAc. The method in brief:
as §1

For assay [12], the target named is Gal(b1-4)GlcNAc(b1-3)Gal(b1-4)GlcNAc(b1-3)Gal(b1-4)GlcNAc(b1-3)Gal(b1-4)GlcNAc(b1-2)Man(a1-3)[Gal(b1-4)GlcNAc(b1-3)Gal(b1-4)GlcNAc(b1-3)Gal(b1-4)GlcNAc(b1-3)Gal(b1-4)GlcNAc(b1-2)Man(a1-6)]Man(b1-4)GlcNAc(b1-4)GlcNAc. The method in brief:
as §1

The target of assay [13] is Gal(b1-4)GlcNAc(b1-3)Gal(b1-4)GlcNAc(b1-3)Gal(b1-4)GlcNAc(b1-3)Gal(b1-4)GlcNAc(b1-2)Man(a1-3)[Gal(b1-4)GlcNAc(b1-3)Gal(b1-4)GlcNAc(b1-3)Gal(b1-4)GlcNAc(b1-3)Gal(b1-4)GlcNAc(b1-2)Man(a1-6)]Man(b1-4)GlcNAc(b1-4)[Fuc(a1-6)]GlcNAc. The method in brief: as §1
Assay [14] addresses Gal(b1-4)GlcNAc(b1-3)Gal(b1-4)GlcNAc(b1-3)Gal(b1-4)GlcNAc(b1-3)Gal(b1-4)GlcNAc(b1-2)[Gal(b1-4)GlcNAc(b1-3)Gal(b1-4)GlcNAc(b1-3)Gal(b1-4)GlcNAc(b1-3)Gal(b1-4)GlcNAc(b1-6)]Man(a1-6)[Gal(b1-4)GlcNAc(b1-3)Gal(b1-4)GlcNAc(b1-3)Gal(b1-4)GlcNAc(b1-3)Gal(b1-4)GlcNAc(b1-2)Man(a1-3)]Man(b1-4)GlcNAc(b1-4)[Fuc(a1-6)]GlcNAc. The method in brief: as §1
Assay [15] addresses Gal(b1-4)GlcNAc(b1-3)Gal(b1-4)GlcNAc(b1-3)Gal(b1-4)GlcNAc(b1-3)Gal(b1-4)GlcNAc(b1-3)Gal(b1-4)GlcNAc(b1-2)Man(a1-3)[Gal(b1-4)GlcNAc(b1-3)Gal(b1-4)GlcNAc(b1-3)Gal(b1-4)GlcNAc(b1-3)Gal(b1-4)GlcNAc(b1-3)Gal(b1-4)GlcNAc(b1-2)Man(a1-6)]Man(b1-4)GlcNAc(b1-4)GlcNAc. In outline: as §1
Assay [16] has as its target Gal(b1-4)GlcNAc(b1-3)Gal(b1-4)GlcNAc(b1-3)Gal(b1-4)GlcNAc(b1-3)Gal(b1-4)GlcNAc(b1-3)Gal(b1-4)GlcNAc(b1-2)Man(a1-3)[Gal(b1-4)GlcNAc(b1-3)Gal(b1-4)GlcNAc(b1-3)Gal(b1-4)GlcNAc(b1-3)Gal(b1-4)GlcNAc(b1-3)Gal(b1-4)GlcNAc(b1-2)Man(a1-6)]Man(b1-4)GlcNAc(b1-4)[Fuc(a1-6)]GlcNAc. The method in brief: as §1
Assay [17] addresses Gal(b1-4)GlcNAc(b1-3)Gal(b1-4)GlcNAc(b1-3)Gal(b1-4)GlcNAc(b1-3)Gal(b1-4)GlcNAc(b1-3)Gal(b1-4)GlcNAc(b1-2)[Gal(b1-4)GlcNAc(b1-3)Gal(b1-4)GlcNAc(b1-3)Gal(b1-4)GlcNAc(b1-3)Gal(b1-4)GlcNAc(b1-3)Gal(b1-4)GlcNAc(b1-6)]Man(a1-6)[Gal(b1-4)GlcNAc(b1-3)Gal(b1-4)GlcNAc(b1-3)Gal(b1-4)GlcNAc(b1-3)Gal(b1-4)GlcNAc(b1-3)Gal(b1-4)GlcNAc(b1-2)Man(a1-3)]Man(b1-4)GlcNAc(b1-4)[Fuc(a1-6)]GlcNAc. The method in brief:
as §1

In assay [18] the target is Gal(b1-4)GlcNAc(b1-3)Gal(b1-4)GlcNAc(b1-3)Gal(b1-4)GlcNAc(b1-3)Gal(b1-4)GlcNAc(b1-3)Gal(b1-4)GlcNAc(b1-3)Gal(b1-4)GlcNAc(b1-2)Man(a1-3)[Gal(b1-4)GlcNAc(b1-3)Gal(b1-4)GlcNAc(b1-3)Gal(b1-4)GlcNAc(b1-3)Gal(b1-4)GlcNAc(b1-3)Gal(b1-4)GlcNAc(b1-3)Gal(b1-4)GlcNAc(b1-2)Man(a1-6)]Man(b1-4)GlcNAc(b1-4)GlcNAc. In outline: as §1
In assay [19] the target is Gal(b1-4)GlcNAc(b1-3)Gal(b1-4)GlcNAc(b1-3)GalNAc. In outline:
as §1

The other results are listed elsewhere or left out.

B1: CC1G-11630 (Coprinopsis cinerea), A8P462 (protein)
chain: MTTEAKIKLKAVVYWELVFDYDNSSNTGEITQSYTVKISQTSTRSTFASEVSTTTIDTLTKNNQEVDVGASYGAISANVSASWEHSEEVNNMLEKTTQTSTEDTYTVETEETRSYTIGPGGMLSLFQKHFSGPGMHVAFDVFTTDLELAKERTEIDIDVDVEAIRFVREIRVVYTDIMSEAPGDHVREINGKNPDINYGFNGKFVWLVPEQTRKTAQALTNVEFVSQAESDDRYWDLAAGAGGSNRYLIPVYDTNNKDKIYELALWRSDSYITHDKVKAAGWSGTTGDINSGRGGTYLNLVWKTRHAY
Regarding B1, the “glycan array binding signal (z-score)” value in assay [1] was -0.286; in assay [2], -0.507; in assay [3] it was -0.335; in assay [4], 2.49; in assay [5] it was -0.469; in assay [6], 1.86. Further, the “glycan array binding signal (z-score)” value in assay [7] was -0.146; in assay [8] it was 0; in [9], 1.59; in [10], -0.176; in assay [11], 0.309; in assay [12], 0.125. Further, the “glycan array binding signal (z-score)” value in assay [13] is 0.196; in assay [14] it was 0.021; in assay [15] it was -0.29; in assay [16], 0.479; in [17] it was -0.067; in assay [18], -0.034. Moreover, in assay [19], the “glycan array binding signal (z-score)” value was -0.35.
